In all, about 13,000 compounds were measured (“IFI”: median about 4, highest 2% from about 17 on). Some of the results follow.

The experiment in a line: GSK_TCMDC: Inhibition Frequency Index (IFI). The number of non-kinase HTS assays where a compound showed > 50 % inhibition, expressed as a percentage of the number of such assays in which the compound was tested (-0 is zero). The experiment is classed as functional.
Take `NS(=O)(=O)c1cncc(-c2ccc3nccc(-c4cn[nH]c4)c3n2)c1`: the IFI was found to be 2.78%. With `Cc1[nH]c(C)c(-c2ccc(OCc3ccccc3)cc2)c(=O)c1Br`, the IFI is -0%. To `CS(=O)(=O)CCNCc1nc(-c2ccc3c(Nc4ccc(F)c(O)c4)ccnc3c2)cs1` belongs 3.73%; to `Cc1nc2nc(N)nc(N)c2c(C)c1Cc1cccc(C(N)=O)c1`, 1.46%. Regarding `O=C(Cn1cnc2c(nnn2Cc2ccccc2F)c1=O)Nc1ccc2c(c1)OCCO2`, the IFI was 0.88%. To `Cc1cc(CN2CCC(N3CC(c4ccccc4)(c4ccccc4)OC3=O)C2)ccc1O` (configuration not stated) belongs 7.14%. To `COc1cccc(CNC(=O)NC2CCN(c3ccnc(Nc4ccc(F)cc4)n3)C2)c1` (configuration not stated) belongs 7.58%.

Turning to `COc1cccc(C(=O)Nc2ccc(Nc3nc(C)cc(N(C)C)n3)cc2)c1`, the IFI worked out at 7.14%. As for `COc1ccc(CNCc2ccc(-c3ccc(-c4nc5ccccc5[nH]4)cc3)cc2)cc1`, the figure is 13%. As for `Cc1ccc2[nH]c(NC#N)nc2c1`, the figure is -0%; as for `COc1ccc2ccc(F)c(CC(=O)N3CCOC(CNCc4cccc(-c5ccsc5)n4)C3)c2n1` (configuration not stated), 0%. `C[C@@H](CC1CCCCC1)NCc1cccc(NS(=O)(=O)c2ccc(O)c(-c3ccno3)c2)c1` registered an IFI of 5.56%. In turn, `O=[N+]([O-])c1ccc(-n2nc(Cc3ccccc3)n(Cc3cccc(F)c3)c2=S)c(C(F)(F)F)c1` displayed an IFI of 2.86%.

`Cc1ccc(C2(CN3CCC(NC(=O)c4cc[nH]n4)CC3)CCCCC2)cc1` came in with an IFI of 6.25%. Regarding `O=C(/C=C/c1ccc(C(F)(F)F)cc1)NCCCCCN1CCN(C(=O)Nc2ccc(Cl)c(Cl)c2)CC1`, the IFI worked out at 13.7%. The compound `O=c1cc(NCCCNCc2cc(F)cc(C(F)(F)F)c2)[nH]c2ccccc12` displayed an IFI of 2.19%.

In turn, `CN1CCN(c2cc3c(cc2Cl)CCN3C(=O)Nc2ccc(NC(=O)c3ccc(C(F)(F)F)cc3)cc2)CC1` displayed an IFI of 5.71%. To `O=C(NC1CCN(Cc2ccc(Cl)cc2)CC1)c1cn(-c2ccccc2)nc1-c1cccnc1` belongs 1.43%; to `Oc1ccc(CNCC2CCN(CC3CCCCC3)CC2)cc1`, 1.38%. To `Cc1cccc2nc(-c3ccc(-c4ccc(CNCc5cccc(N)c5)cc4)cc3)[nH]c12` belongs 8.65%; to `C=CCN1C(=O)c2[nH]nc(-c3cc(C)c(C)cc3O)c2C1c1cccc(Br)c1` (configuration not stated), 4.65%.

On to `CCN(CC)CCCC(C)Nc1c2ccccc2nc2ccc3ccccc3c12` (configuration not stated), for which the IFI is 0.73%. To `CCCC(C)NC(=O)[C@H](CC1CCCCC1)NC(=O)c1ccc(O)c(-c2cccc(C(F)(F)F)c2)c1` (some centres not stated) belongs 2.99%; to `CC(C)CN1CCN(CCNc2c3ccccc3nc3ccccc23)CC1`, 5.11%; to `OCCN1CCN(Cc2ccc(-c3ccc(-c4nc5ccccc5[nH]4)cc3)cc2)CC1`, 6.86%. To `CN1CCN(Cc2cccc(-c3ccc4c(Nc5ccc(F)cc5Cl)ccnc4c3)c2)CC1` belongs 5.84%; to `COc1cc(Cc2cnc(N)nc2N)cc(OCCCS(=O)(=O)O)c1OC`, 1.52%; to `COc1ccc2nccc([C@@H](O)CN3CCC(NCc4cc5ccccc5cn4)CC3)c2n1`, 3.33%. In turn, `Cc1c(C(=O)N2CCc3cc4nccc(N5CCN6CCC[C@H]6C5)c4cc32)cnn1-c1ccc(C#N)cc1` showed an IFI of 0.73%.

Take `CC(C)CNC(=O)CN1C(=O)C(c2ccccc2)(c2ccccc2)N=C1N`: the IFI amounted to 1.16%. `Oc1ccc(Cl)cc1CN1CCCC(COC(c2ccc(F)cc2)c2ccc(F)cc2)C1` (configuration not stated) showed an IFI of 1.56%. As for `CCCCCCOc1ccc2ccccc2c1CNCCCCCCNCc1c(OCCCCCC)ccc2ccccc12`, the figure is 22.8%; as for `O=C(/C=C/c1ccc(Cl)c(Cl)c1)N1CCC(CCN2CCC(c3c[nH]c4ccncc34)CC2)CC1`, 1.48%; as for `COc1cccc2c1CCN(CCN1CCC(CNC(=O)c3ccc(-c4ccc(C#N)cc4)cc3)CC1)C2`, 10.8%. To `CC1(C)[C@H]2CC[C@@H](CNc3nc(NCC(=O)Nc4ccc5ccccc5c4)nc(N4CCC(N5CCCC5)CC4)n3)[C@@H]1C2` belongs 4.96%; to `CCc1nc2c(cnn2CC)c(NC2CCOCC2)c1CNC(=O)c1ccoc1C`, 1.85%. To `COc1cc(C=CC(=O)N2CCC3(CC2)CC(=O)c2ccccc2O3)cc(OC)c1OC` belongs 0%; to `CC(C)c1nc2c(N)nc(N)nc2nc1N`, 2.08%. Turning to `N#Cc1ccc(C(=O)NC2CCN(CCCCCNC(=O)/C=C/c3ccc(Cl)c(Cl)c3)CC2)cc1`, the IFI stood at 3.17%. In turn, `O=S(=O)(c1ccc(OCc2ccc(Cl)cc2)cc1)c1cc2c(cc1OCc1ccccc1)CCN(C1CCC1)CC2` yielded an IFI of 5.38%. To `Cc1ccccc1-c1nc2c(CN3CCC(O)(c4ccccc4)CC3)c(O)ccc2[nH]1` belongs 3.96%; to `CC(CN1CCN(C)CC1)C(=O)Nc1ccc(-c2ccc(-c3nc4ccccc4[nH]3)cc2)cc1` (configuration not stated), 2.78%; to `OCCNc1nc(Nc2ccc(Cl)cc2)nc2ccccc12`, 3.37%.

In the case of `c1ccc(-c2nc(Nc3ccncc3)sc2-c2ccccc2)cc1`, the IFI turned out to be 10.8%. Take `Fc1ccc2[nH]c3c(NCCN4CCCCC4)ncnc3c2c1`: the IFI turned out to be 1.4%. To `CSc1ccc(CN2CCC(NC(=O)c3ccc(-c4cccc(Cl)c4)s3)CC2)cc1` belongs 15.5%.

With `CCc1ccc(CN2CCC(CNC(=O)c3cc(-c4cccc(F)c4)cs3)C2)cc1` (configuration not stated), the IFI came out at 8.16%.

Compound `Cn1cncc1-c1ccc2ncnc(Nc3ccc(OCc4ccccc4)cc3)c2c1` gave an IFI of 1.45%. Compound `COc1ccc(CN(C)CC(O)COc2ccc(NC(=O)c3cccc4c(=O)c5cccc(OC)c5[nH]c34)cc2)cc1OC` (configuration not stated) returned an IFI of 9.93%. To `COc1ccc(-c2cccc(NC(=O)c3ccc(F)cc3)c2)cc1CNC(C)C` belongs 5.94%. The compound `Cc1c(CNCCN2CCCCC2)c(C(=O)O)c(C)n1Cc1ccc(Cl)cc1` showed an IFI of 1.41%. To `COc1ccc(N2CCN(c3nc(N)c4cc(OC)c(OC)cc4n3)CC2C)cc1` (configuration not stated) belongs 7.41%.

Take `CCOC(=O)c1ccc(NC(=O)N[C@@H](Cc2ccccc2)C(=O)NC2CCN(Cc3ccc(O)c(OC)c3)C2)cc1` (some centres not stated): the IFI was 2.92%.

For `COc1cc2nc(N3CCN(c4nc(N)c5cc(OC)c(OC)cc5n4)CC3)nc(N)c2cc1OC`, the IFI stood at 3.52%.

With `COc1ccc2nccc([C@@H](O)CN3CCC(NC(=O)/C=C/c4ccc(F)c5ccccc45)CC3)c2c1`, the IFI was found to be 9.63%.

In turn, `Cc1cc(NC(=O)Nc2ccc(C(C)C)cc2)c2ccccc2n1` had an IFI of 6.76%.

As to `COc1cccc2sc(Nc3nc(-c4ccccn4)cs3)nc12`, the IFI was determined as 11.1%.

`Cc1cc(=O)c(-c2ccc(Oc3ccc(C(F)(F)F)cc3)cc2)c(C)n1O`: the IFI worked out at 9.49%. `NC1=NC(c2ccccc2)(c2ccccc2)C(=O)N1CCCCc1ccccc1` displayed an IFI of 15.7%. To `Cc1cc(N[C@@H](CC(C)C)C(=O)NCc2cccs2)nc(NCCc2ccc(F)cc2)n1` belongs 13.6%.

Turning to `COc1cc(Cc2cnc(N)nc2N)ccc1OCc1cccc(Oc2ccccc2)c1`, the IFI was determined as 8.67%. With `Cc1noc(C)c1-c1cccc(CNCc2ccc(-c3cccc(-c4nc5cccc(C)c5[nH]4)c3)cc2)c1`, the IFI came to 3.88%. To `CC[C@H]1CN2CCc3cc(OC)c(OC)cc3[C@@H]2C[C@@H]1CC1=NCCc2c1[nH]c1ccc(OCc3ccccc3)cc21` belongs 2.22%. The compound `Cc1cc(-c2cc3nc4c(c(O)n3n2)CCCC4)c(C)o1` returned an IFI of 0%. In turn, `CC(C)C[C@H](NC(=O)c1cc2ccccc2s1)C(=O)N[C@H]1CCN(Cc2ccc(OC[C@@H]3CCCN3C)c(Cl)c2)C1` had an IFI of 6.67%. The compound `COc1cccc(-c2cc3nc4c(c(NCCCn5ccnc5)n3n2)CCCC4)c1` gave an IFI of 7.83%. To `COc1ccc(Nc2nccc(NCCNC(=O)c3cc4ccccc4s3)n2)cc1` belongs 6.15%. As for `O=C(Nc1ccon1)c1cc(-c2cccnc2)nc2ccc(Cl)cc12`, the figure is 0.93%; as for `Oc1c(C=Nn2cnnc2)sc2ccccc12`, 1.48%; as for `CCCCCCCN1CC[C@@H](CCCc2ccnc3ccc(OC)cc23)[C@@H](CNC)C1`, 10.8%.

`Nc1nc(N)c2c(Cl)c(N3CCOCC3)ccc2n1` registered an IFI of 2.82%. For `COc1ccc(Nc2nc(=Nc3ccccc3)nc(NN=Cc3cc(Cl)ccc3O)[nH]2)cc1`, the IFI stood at 7.53%.

Regarding `CN(c1ccc(NC(=O)Nc2cc(C(C)(C)C)on2)cc1)c1ccnc(NCCOC(=O)Nc2cc(C(C)(C)C)on2)n1`, the IFI is 9.42%. As for `NC(=O)c1ccc(C(=O)Nc2cccc(-c3cccc(-c4nc5cc(C(F)(F)F)ccc5[nH]4)c3)c2)cc1`, the figure is 3.51%; as for `O=[N+]([O-])c1cccc(S(=O)(=O)N2CCN(CC(O)COc3ccc(-c4ccccc4)cc3)CC2)c1` (configuration not stated), 0%.

In turn, `O=C(/C=C/c1ccc(Cl)c(Cl)c1)NCCCCCCN1CCN(C(=O)Nc2ccc(OC(F)F)cc2)CC1` yielded an IFI of 8.8%. To `O=C(NCCN1CCCC1)c1cccc(-c2ccc(-c3nc4cc(F)ccc4[nH]3)s2)c1` belongs 5.41%. To `O=C(NCCc1ccc(Cl)c(Cl)c1)[C@@H]1CCCN1C(=O)c1ccc(O)c(-c2cccc(C(F)(F)F)c2)c1` belongs 0.73%; to `COc1cccc(Nc2nccc(NCC(O)c3cccc(C(F)(F)F)c3)n2)c1` (configuration not stated), 8.74%. For `OC(CNc1cccc(Cl)c1)Cn1c2ccc(Cl)cc2c2cc(Cl)ccc21` (configuration not stated), the IFI came out at 1.5%. The compound `CCc1ccc(C2CCN(CCCCNC(=O)c3ccc(-c4ccc(C(F)(F)F)cc4)cc3)CC2)c(OCCO)c1` came in with an IFI of 7.89%. As for `O=C(Cn1c(CCc2cccc(F)c2F)nc(=O)c2ccccc21)N(CCN1CCCC1)Cc1ccc(-c2ccc(C(F)(F)F)cc2)cc1`, the figure is 5.84%; as for `N=C(NCCc1ccc(Cl)c(Cl)c1)c1ccc2ccccc2c1`, 6.72%; as for `CCc1cccc(OCC2CCCN(c3ccc(C(=O)NC4CC4)cn3)C2)c1` (configuration not stated), 3.92%. As for `Nc1ccc(Oc2ccc(Cc3cnc(N)nc3N)cc2)cc1`, the IFI is 1.53%. As for `c1ccc(CCNCc2ccc(-c3cccc(-c4nc5ccccc5[nH]4)c3)cc2)nc1`, the figure is 6.54%. Turning to `Cc1ccccc1N1CCN(c2ccc(C(=O)Nc3ccccc3)cn2)CC1`, the IFI came out at 8.33%.

For `CC1(C)N=C(N)N=C(N)N1OCCCOc1cc(Cl)c(Cl)cc1Cl`, the IFI came out at 6.43%. As for `CC(C)N1CCN(CCCNc2c3ccccc3nc3ccccc23)CC1`, the figure is 2.94%; as for `O=C(C(=O)c1ccc(Nc2ccnc3cc(-c4ccccn4)ccc23)cc1)c1ccccc1`, 2.9%. The compound `COCCNCc1cccc(-c2ccc3c(Nc4ccc(Oc5ccccc5)cc4)ccnc3c2)c1` showed an IFI of 6.62%.

In turn, `COc1cc(C)nc2ccc(NC(=O)Nc3ccccc3[N+](=O)[O-])cc12` yielded an IFI of 6.25%.
